Usually % Inhibition stands for the relative decrease from the control value, in per cent.

Each structure is given as a SMILES string. In all, about 150,000 compounds went through this assay and about 540 (0.36%) showed an effect of 50% or more. This is one part of the list.

The test system of this assay is Plasmodium falciparum. Nature of the assay: Primary screen in NF54 nanoGlo assay, in single point, at 2uM, 72h; a lower Z score goes with more inhibition. Format: functional, Erythrocyte. As to conditions: timepoint 72 hour.
Regarding `CN1CCC(n2cnc(-c3ccccc3)c2-c2cccc3cccnc23)CC1`, the “% Inhibition” value is given as -3% and the Z score worked out at 0.58.
Regarding `Cc1ccsc1[C@@H]1CCCCCN1S(=O)(=O)c1ccc(C(C)C)cc1`, the “% Inhibition” value is -2% and the Z score is 0.49.
`COc1ccc(CN2CCC(=O)N(CC3CCCCC3)CC2)c(Cl)c1OC`: the “% Inhibition” value came to 6% and the Z score is -1.11.
For `Cc1cnccc1NC(=O)N1CC[C@H](CN2CCCCC2)C1` the same measures were -7% and 0.83.
For `CNC(=O)[C@H]1CCN(S(=O)(=O)N(C)Cc2ccccc2)C1` the same measures were -20% and 1.95.
For `CN1CCc2[nH]nc(C(=O)N3CCN(c4ccccn4)CC3)c2C1` the same measures were -8% and 0.77.
As to `COCCc1noc(-c2cnc3nc(C)ccc3c2Nc2ccc(C)c(F)c2)n1`, the “% Inhibition” value is on record as -11% and the Z score came to 2.03.
For the compound `CCc1nc(C)nc(N2CCN(C[C@H](O)COc3ccccc3C)CC2)c1Cc1cccc(C)c1`, the “% Inhibition” value was 36% and the Z score is recorded as -4.89.
For `CCc1nc2ccccc2n1[C@@H](CC)C(=O)NCc1nc(C(N)=O)no1` the same measures were -10% and 1.73.
The like results for `COC(=O)[C@H](C)N1CCC(CN2CCOCC2)CC1` were, in that order, -14% and 2.66.
The like results for `Cc1nn(C)c(C)c1CCC(=O)N1CC[C@@H]2CN(Cc3ccccc3)[C@@H]2C1` were, in that order, -12% and 1.39.
For `COc1cccc(-c2noc(N3CCC[C@H]3C(=O)N(C)C)n2)c1`, the “% Inhibition” value was -2% and the Z score amounted to 0.29.
For `CCn1cc(-c2c(-c3ccccc3)ncn2Cc2sc(COC)nc2C)c(C)n1` the same measures were -12% and 1.15.
The like results for `Cc1ccc(S(=O)(=O)N2C(=O)CC[C@H]2C(=O)O/N=C(\N)c2ccncc2)cc1` were, in that order, -15% and 1.96.
For `CC(C)c1nc(C2(NCc3nc(N(C)C)no3)CCCC2)no1` the same measures were 1% and -0.17.
`CCc1nc(Cn2cc(S(=O)(=O)N(C)C)cn2)cs1`: the “% Inhibition” value is listed as -2% and the Z score came out at 0.38.
For `COc1cnc(NC(=O)c2ccc(-n3cnnn3)cc2)cn1` the same measures were -13% and 2.24.
The like results for `O=C(N[C@H](CO)Cc1ccccc1)c1ccc(F)cc1-n1cnnn1` were, in that order, -14% and 1.8.
The like results for `COc1cc(NC2CCCN(C(=O)C3C4CCCCC43)C2)cc(OC)c1` (stereo unspecified) were, in that order, -7% and 0.71.
Turning to `Cc1cc(F)ccc1C(=O)NCc1nnc(C)n1C1CC1`, the “% Inhibition” value was -2% and the Z score came out at 0.34.
As to `CNc1ncc(CN(C)C(=O)Nc2cc(NC(=O)COC)ccc2C)cn1`, the “% Inhibition” value came out at 5% and the Z score was -0.92.
For `Cn1cnc2cc(CNC(=O)c3ccsc3)ccc21`, the “% Inhibition” value is -17% and the Z score turned out to be 1.67.
As to `Cc1csc(NC(=O)NC2CCCC2n2ccnc2)n1` (stereo unspecified), the “% Inhibition” value is reported as -6% and the Z score was 0.75.
For `COCCN(C)C(=O)c1cnn(-c2ncc3c(n2)-c2ccccc2CCC3)c1COC` the same measures were -25% and 3.28.
The like results for `CCC(C)C(C(=O)Nc1nc(CCC2CCCC2)n[nH]1)n1cnnn1` (stereo unspecified) were, in that order, -6% and 0.83.
`C=CCN1CC[C@@]2(CCC1=O)CN(Cc1ccnc3ccccc13)CCN2C`: the “% Inhibition” value is -1% and the Z score is given as 0.1.
For `CN(C)C[C@]1(O)CCCN(Cc2cnc3c(-c4ccccc4)cnn3c2)C1`, the “% Inhibition” value is -1% and the Z score amounted to 0.28.
The like results for `COc1ccc(S(=O)(=O)N[C@H]2CO[C@@H](CN3CCN(c4cccc(C(F)(F)F)c4)CC3)[C@@H]2O)cc1` were, in that order, -4% and 0.56.
For the compound `CCC1Oc2cc(C(C)NCCc3csc(C)n3)ccc2NC1=O` (stereo unspecified), the “% Inhibition” value amounted to 4% and the Z score is listed as -0.37.
The like results for `CC(C)(C)C(=O)N1CCC[C@H](Oc2cc(C#N)ccn2)C1` were, in that order, 10% and -1.09.
The like results for `Cc1cc(C(=O)NC2CC(OCc3ccccc3)C2)on1` (stereo unspecified) were, in that order, -6% and 1.06.
Regarding `Cc1cc(=O)n(CCN(Cc2c(C)nn(C)c2C)C(C)C)c(=O)[nH]1`, the “% Inhibition” value was -15% and the Z score was 2.32.
Turning to `CN(Cc1ncnn1C)S(=O)(=O)c1c(F)cccc1Cl`, the “% Inhibition” value came to 3% and the Z score is -0.35.
For `O=C1C[C@@H](C(=O)Nc2nccs2)Oc2ccc(Cl)cc21` the same measures were 32% and -3.63.
The like results for `CCN1CCN(C(=O)N[C@@H](C)C(=O)OC)c2cccnc21` were, in that order, 3% and -0.49.
`CNC(=O)C1CCCCC1NCC(O)C(F)(F)F` (stereo unspecified): the “% Inhibition” value is on record as -11% and the Z score stood at 1.87.
The like results for `Cc1ccc(C)c(NC(=O)c2ccccc2OCc2csc(C)n2)c1` were, in that order, -2% and 0.31.
The like results for `CC(=O)N1CCC(Nc2ncnc3sccc23)CC1` were, in that order, 29% and -3.96.
For `Cc1csc(-c2cc(S(=O)(=O)Nc3ccc(S(N)(=O)=O)cc3)c(C)n2C)n1` the same measures were -7% and 0.82.
As to `CC(C(=O)NC(C)(C)C)N1CCCC(C(=O)N2CCCCCC2)C1` (stereo unspecified), the “% Inhibition” value is on record as -8% and the Z score was 0.86.
For `O=C1c2c(nc3ccccc3c2-c2ccccc2)CN1Cc1ccccc1`, the “% Inhibition” value is -43% and the Z score is on record as 5.1.
The like results for `CC(C)N(c1ccccc1)c1ccc(NC(=O)COC(=O)c2cccc(S(=O)(=O)N3CCCc4ccccc43)c2)cc1` were, in that order, -16% and 1.61.
The like results for `O=C(Nc1ccc(C2OC(=O)N(Cc3ccc(F)cc3)C2C(=O)Nc2ccccc2)cc1)c1ccc(F)cc1` (stereo unspecified) were, in that order, -7% and 0.94.
The like results for `COC(C(=O)N1C[C@H](OC)[C@@H](O)C1)c1ccccc1C(F)(F)F` (stereo partly specified) were, in that order, -11% and 1.63.
Turning to `O=C(COc1ccc2oc3ccccc3c2c1)NC1CCN(Cc2ccccc2)CC1`, the “% Inhibition” value is -5% and the Z score turned out to be 0.86.
The like results for `Cc1ccsc1CN(Cc1ccccc1)C(=O)CN(C(=O)CCc1ccccc1)C1CCCCC1` were, in that order, -4% and 0.59.
For `O=S1(=O)NC2C3CC(CC31)C2OCc1ccc(F)c(Cl)c1` (stereo unspecified) the same measures were 11% and -1.48.
For `O=C(Nc1n[nH]c2c(Cl)cccc12)[C@@H]1CCCN1C1CCOCC1` the same measures were -3% and 0.37.
As for `COc1cc(-c2cc(CN(C[C@H]3CCCO3)C(=O)Cc3ccccc3)no2)cc(OC)c1OC`, the “% Inhibition” value was -14% and the Z score worked out at 1.33.
The like results for `Cc1cccc(C(=O)N2[C@H](C(=O)NCCN(C)C)COC23CCN(C(=O)c2cccc(F)c2)CC3)c1` were, in that order, -12% and 1.13.
For `Clc1ccc2nc(N3CCCCC3)cc(-c3ccccc3)c2c1` the same measures were -9% and 1.59.
For `C[C@@H](C(=O)Nc1cc(C(F)(F)F)c[nH]c1=O)n1cc(Cl)cn1` the same measures were 33% and -4.41.
In the case of `Cc1ccc(C(N)=O)cc1OCC(C)C`, the “% Inhibition” value is reported as 1% and the Z score is on record as -0.08.
For `Cc1cnccc1NCCNS(=O)(=O)c1cc(C(N)=O)cs1` the same measures were -15% and 2.54.
The like results for `COc1cccc(C(=O)Nc2c3c(nc4ccccc24)CCCC3)c1` were, in that order, 1% and -0.12.
As for `CNc1ncc(CN(C)S(=O)(=O)NCc2ccccc2)cn1`, the “% Inhibition” value was -12% and the Z score is reported as 2.18.
For `CC(C)c1ncc(NS(=O)(=O)c2cn(C)nc2C2CCCC2)cn1` the same measures were 3% and -0.53.
The like results for `CC(C)(C)OC(=O)N[C@@H]1COC[C@@H]1n1cc(N)cn1` were, in that order, 5% and -0.39.
As for `COc1cccc(Cn2c(=O)c3sccc3n(CC(=O)NC3CCCC3)c2=O)c1`, the “% Inhibition” value stood at 23% and the Z score is given as -2.55.
As to `COC(=O)N1CCC[C@H](Nc2ccc(C#N)nc2)C1`, the “% Inhibition” value is recorded as -4% and the Z score is listed as 0.56.
For `Cc1cc(CCNC(=O)[C@@H]2CCc3cc(Br)ccc32)on1` the same measures were -7% and 0.94.
For `CC(=O)N[C@H]1CCN(c2nc3c(s2)c(C)nn3C)C1` the same measures were 5% and -0.6.
For `Cc1ncoc1CNC(=O)[C@H]1CC(=O)N(C)[C@@H]1c1ccc(F)cc1` the same measures were -4% and 0.49.
Take `Cc1cc(CN(C)C(=O)c2[nH]nc(C(C)C)c2Br)no1`: the “% Inhibition” value is -15% and the Z score is 1.69.
For `O=C(Nc1nccs1)C1CCCN(C(=O)C2CCCc3ccccc32)C1` (stereo unspecified) the same measures were -1% and 0.15.
Consider `CC(NC1CCN(C(=O)COc2ccccc2)C1)c1cc2ccncc2s1` (stereo unspecified), for which the “% Inhibition” value is recorded as -3% and the Z score amounted to 0.48.
On to `CCOc1ncccc1C(=O)N1CCCC[C@H]1c1cc(C(N)=O)[nH]n1`, for which the “% Inhibition” value is 9% and the Z score is on record as -1.17.
For `Cc1cc(NC(=O)c2ccoc2)n(C)n1` the same measures were -6% and 1.24.
The like results for `Cc1nc(-c2cccc(NC(=O)CN3CCC[C@H]3c3ccccc3)c2)cs1` were, in that order, -3% and 0.35.
As to `C=CCOCCNC(=O)N[C@H]1CCCC12CCOCC2`, the “% Inhibition” value was determined as 0% and the Z score is listed as -0.06.
For `Cc1ccc(Cn2c(=O)c3nc(C(=O)Nc4c(C)cc(C)cc4C)nn3c3ccc(C)cc32)cc1`, the “% Inhibition” value is listed as -1% and the Z score is 0.13.
For `O=C(c1ccc2[nH]c3c(c2c1)CCCC3)N1CCN(C(=O)c2ccco2)CC1` the same measures were -9% and 1.43.
The like results for `CS(=O)(=O)c1ccc2nc(NC(=O)c3cc(-n4cnnn4)ccc3Cl)sc2c1` were, in that order, -21% and 3.01.
The like results for `CC1CCN(C(=O)c2ccccc2NC(=O)[C@@H]2Cc3ccccc3O2)CC1` were, in that order, -4% and 0.53.
Regarding `CNCc1ncc(-c2sccc2C)cn1`, the “% Inhibition” value is -4% and the Z score worked out at 0.62.
The like results for `COc1ccccc1C(C)CNC1CCN(CC2CCCO2)CC1C` (stereo unspecified) were, in that order, 2% and -0.22.
In the case of `CC(=O)c1ccc(CNC(=O)c2cc(C)oc2C)nc1C`, the “% Inhibition” value is reported as -17% and the Z score is given as 2.57.
`CCCn1nc(-c2ccco2)nc1[C@H]1CCCC[C@H]1C(=O)N1CCCC1`: the “% Inhibition” value is -17% and the Z score worked out at 1.68.
For `CC1CCCCC1N(C)C(=O)COC(=O)C1CCC(NC(N)=O)CC1` (stereo unspecified) the same measures were -13% and 1.82.
The like results for `COc1cccc(CN2CCC[C@@]3(CCN(C(=O)c4cc(N)[nH]n4)C3)C2)c1OC` were, in that order, -7% and 1.35.
With `CNCC(=O)N[C@@H](C)c1cnc(N(C)C2CCCCC2)nc1C`, the “% Inhibition” value is reported as 12% and the Z score is recorded as -1.53.
The like results for `Cc1ccc(NC(=O)c2cnn(CC(F)(F)F)c2)cc1N1CCNC1=O` were, in that order, -9% and 1.27.
The like results for `CC(C)c1cc(C(=O)N2CCC[C@H](c3cc(O)ncn3)C2)nc2ncnn12` were, in that order, -19% and 2.91.

For the origin of these results see ChEMBL document CHEMBL4888484, “Replenishing the malaria drug discovery pipeline: Screening and hit evaluation of the MMV Hit Generation Library 1 (HGL1) against asexual blood stage Plasmodium falciparum ,using a nano luciferase reporter read-out” (2022).
